Source: the supplement of paper PMC12355420
Structures can show the parent of a compound that is named as a salt. Some of the results follow. Cut-off read from the data, not from the text of the source: active = 0.5 or less and inactive = the rest. Repeats are few or missing, and single values can be far off.

What follows are compounds tested on HeLa VPS33A R498W KI + HA-SDC1-FLAG (assay: relative GAG core protein HA-SDC1 amount per cell number vs DMSO (fraction of DMSO); higher = more SDC1 (GAG core protein)). Settings: 50 µM; 24 h.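 Note: HA-SDC1 level read out by In-Cell Western staining with an anti-HA antibody against the N-terminal tag, screening FDA-approved library drugs.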

| SMILES | relative GAG core protein HA-SDC1 amount per cell number |
| --- | --- |
| CCCCC1C(=O)N(c2ccccc2)N(c2ccccc2)C1=O [Phenylbutazone] | inactive: 0.952 |
| CNNCc1ccc(C(=O)NC(C)C)cc1 [Procarbazine HCl] | inactive: 1.32 |
| CCOC(=O)Nc1ccc(NCc2ccc(F)cc2)nc1N [Flupirtine maleate] | inactive: 0.746 |
| CC[C@H]1OC(=O)[C@H](C)[C@@H](O[C@H]2C[C@@](C)(OC)[C@@H](O)[C@H](C)O2)[C@H](C)[C@@H](O[C@@H]2O[C@H](C)C[C@H](N(C)C)[C@H]2O)[C@](C)(OC)C[C@@H](C)C(=O)[C@H](C)[C@@H](O)[C@]1(C)O [Clarithromycin] | inactive: 1.08 |
| CN(C)C(=O)COC(=O)Cc1ccc(OC(=O)c2ccc(NC(=N)N)cc2)cc1 [Camostat Mesilate] | inactive: 0.948 |
| C[C@@H]1O[C@@H](Oc2c(-c3ccc(O)c(O)c3)oc3cc(O)cc(O)c3c2=O)[C@H](O)[C@H](O)[C@H]1O [Quercitrin] | inactive: 0.97 |
| COCCCOc1ccnc(C[S+]([O-])c2nc3ccccc3[nH]2)c1C (stereo not given) [Rabeprazole] | inactive: 0.737 |
| Oc1c(Cl)cc(Cl)c(Cl)c1Cc1c(O)c(Cl)cc(Cl)c1Cl [Hexachlorophene] | inactive: 0.518 |
| N[C@@H](CSCCCO)C(=O)O [Fudosteine] | inactive: 1.18 |
| FC(F)(F)c1ccc(CNc2ccc(Cc3c[nH]c4ncc(Cl)cc34)cn2)cn1 [Pexidartinib (PLX3397)] | inactive: 1.11 |
| C[C@]12CC[C@@H]3c4ccc(O)cc4CC[C@H]3[C@@H]1CC[C@@H]2OC(=O)CCC1CCCC1 [Estradiol Cypionate] | inactive: 1.3 |
| CCOC(=O)N1c2ccc(C(F)(F)F)cc2[C@@H](N(Cc2cc(C(F)(F)F)cc(C(F)(F)F)c2)C(=O)OC)C[C@H]1CC [Torcetrapib] | inactive: 1.12 |
| CN1CCC(=C2c3ccccc3CCc3sccc32)CC1 [Pizotifen] | inactive: 0.914 |
| O=c1cc[nH]c(=S)[nH]1 [2-Thiouracil] | inactive: 0.833 |
| O=C(O)c1ccc(C(=O)O)cc1 [Terephthalic acid] | inactive: 0.813 |
| Cc1ccc(Nc2c(F)cccc2Cl)c(CC(=O)O)c1 [Lumiracoxib] | inactive: 0.912 |

| SMILES | relative GAG core protein HA-SDC1 amount per cell number |
| --- | --- |
| CCN(CC)C(=O)C1(c2ccccc2)CC1CN (stereo not given) [Milnacipran HCl] | inactive: 0.988 |
| O=C(O)/C=C/c1ccccc1 [Cinnamic acid] | inactive: 0.818 |
| O=C(NCC1CCCCN1)c1cc(OCC(F)(F)F)ccc1OCC(F)(F)F (stereo not given) [Flecainide acetate] | inactive: 0.997 |
| C[C@]12CC[C@@H]3c4ccc(O)cc4CC[C@H]3[C@@H]1CCC2=O [Estrone] | inactive: 1.28 |
| OC(CCN1CCCCC1)(c1ccccc1)c1ccccc1 [Pridinol Methanesulfonate] | inactive: 1.13 |
| CN1CC(=O)NC1=N [Creatinine] | inactive: 0.977 |
| O=C1c2ccccc2C(=O)C1c1ccccc1 [Phenindione] | inactive: 0.885 |
| CC(C)(C)C(O)/C=C/c1ccc2c(c1)OCO2 (stereo not given) [Stiripentol] | active: 0.334 |
| CC(=O)CC(c1ccccc1)c1c(O)c2ccccc2oc1=O (stereo not given) [Warfarin] | inactive: 0.832 |
| O=C(O)COCCN1CCN(C(c2ccccc2)c2ccc(Cl)cc2)CC1 (stereo not given) [Cetirizine] | inactive: 1.1 |
| CCCCN1CCCC[C@H]1C(=O)Nc1c(C)cccc1C [Levobupivacaine HCl] | inactive: 0.96 |
| Cn1c(=O)c2c(ncn2CC(O)CO)n(C)c1=O (stereo not given) [Dyphylline] | inactive: 0.896 |
| O=C(N[C@H](CO)[C@H](O)c1ccc([N+](=O)[O-])cc1)C(Cl)Cl [Chloramphenicol] | inactive: 1.36 |
| COc1cc2nccc(Oc3ccc(NC(=O)NC4CC4)c(Cl)c3)c2cc1C(N)=O [Lenvatinib (E7080)] | inactive: 1.31 |
| COCCOC(=O)C1=C(C)NC(C)=C(C(=O)OC/C=C/c2ccccc2)C1c1cccc([N+](=O)[O-])c1 (stereo not given) [Cilnidipine] | inactive: 0.558 |

These compounds were tested on HeLa VPS33A KO + NLuc-VPS33A R498W (assay: relative mutant VPS33A R498W amount (NanoLuc luminescence) vs DMSO (fraction of DMSO); HeLa model of a glycosaminoglycan (GAG) storage disease; KI is knock-in and KO knock-out; SDC1 is syndecan 1; higher = higher mutant VPS33A level). Settings: 50 µM; 24 h.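 Note: screen of an FDA-approved drug library, NanoLuc luminescence read after lysing the treated cells, taken as a measure of mutant VPS33A protein stability.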

| SMILES | relative mutant VPS33A R498W amount |
| --- | --- |
| Cc1ccc2c(c1)c1c(n2CCc2ccc(C)nc2)CCN(C)C1 [Latrepirdine] | 1.02 |
| CCCCC(=O)N(Cc1ccc(-c2ccccc2-c2nnn[nH]2)cc1)[C@H](C(=O)O)C(C)C.CCOC(=O)[C@H](C)C[C@@H](Cc1ccc(-c2ccccc2)cc1)NC(=O)CCC(=O)O | 1.2 |
| C[C@@H](CN1CC(=O)NC(=O)C1)N1CC(=O)NC(=O)C1 [Dexrazoxane HCl (ICRF-187, ADR-529)] | 0.743 |
| Nc1nc(F)nc2c1ncn2[C@@H]1O[C@H](CO)[C@@H](O)[C@@H]1O [Fludarabine] | 1.55 |
| Cc1cc(C(C)(C)C)c(O)c(C(C)(C)C)c1 | 0.829 |
| O=C(O)c1cccc(-c2noc(-c3ccccc3F)n2)c1 [PTC124 (Ataluren)] | 0.902 |
| COc1ccc2c3c1O[C@H]1C[C@@H](O)C=C[C@@]31CCN(C)C2 [Galanthamine HBr] | 1.17 |
| CC1(C)S[C@@H]2[C@H](NC(=O)Cc3ccccc3)C(=O)N2[C@H]1C(=O)O [Penicillin G Sodium] | 1.2 |
| CCCCC1C(=O)N(c2ccccc2)N(c2ccccc2)C1=O [Phenylbutazone] | 1.59 |
| CNNCc1ccc(C(=O)NC(C)C)cc1 [Procarbazine HCl] | 1.11 |
| CCOC(=O)Nc1ccc(NCc2ccc(F)cc2)nc1N [Flupirtine maleate] | 0.982 |
| CC[C@H]1OC(=O)[C@H](C)[C@@H](O[C@H]2C[C@@](C)(OC)[C@@H](O)[C@H](C)O2)[C@H](C)[C@@H](O[C@@H]2O[C@H](C)C[C@H](N(C)C)[C@H]2O)[C@](C)(OC)C[C@@H](C)C(=O)[C@H](C)[C@@H](O)[C@]1(C)O [Clarithromycin] | 1.02 |
| CN(C)C(=O)COC(=O)Cc1ccc(OC(=O)c2ccc(NC(=N)N)cc2)cc1 [Camostat Mesilate] | 1.91 |
| C[C@@H]1O[C@@H](Oc2c(-c3ccc(O)c(O)c3)oc3cc(O)cc(O)c3c2=O)[C@H](O)[C@H](O)[C@H]1O [Quercitrin] | 1.27 |
| COCCCOc1ccnc(C[S+]([O-])c2nc3ccccc3[nH]2)c1C (stereo not given) [Rabeprazole] | 1.07 |
| Oc1c(Cl)cc(Cl)c(Cl)c1Cc1c(O)c(Cl)cc(Cl)c1Cl [Hexachlorophene] | 1.48 |
| N[C@@H](CSCCCO)C(=O)O [Fudosteine] | 0.991 |
| FC(F)(F)c1ccc(CNc2ccc(Cc3c[nH]c4ncc(Cl)cc34)cn2)cn1 [Pexidartinib (PLX3397)] | 0.635 |
| C[C@]12CC[C@@H]3c4ccc(O)cc4CC[C@H]3[C@@H]1CC[C@@H]2OC(=O)CCC1CCCC1 [Estradiol Cypionate] | 0.941 |
| CCOC(=O)N1c2ccc(C(F)(F)F)cc2[C@@H](N(Cc2cc(C(F)(F)F)cc(C(F)(F)F)c2)C(=O)OC)C[C@H]1CC [Torcetrapib] | 1.36 |

| SMILES | relative mutant VPS33A R498W amount |
| --- | --- |
| CN1CCC(=C2c3ccccc3CCc3sccc32)CC1 [Pizotifen] | 0.673 |
| O=c1cc[nH]c(=S)[nH]1 [2-Thiouracil] | 1.39 |
| O=C(O)c1ccc(C(=O)O)cc1 [Terephthalic acid] | 1.01 |
| Cc1ccc(Nc2c(F)cccc2Cl)c(CC(=O)O)c1 [Lumiracoxib] | 0.936 |
| CCN(CC)C(=O)C1(c2ccccc2)CC1CN (stereo not given) [Milnacipran HCl] | 1.46 |
| O=C(O)/C=C/c1ccccc1 [Cinnamic acid] | 1.22 |
| O=C(NCC1CCCCN1)c1cc(OCC(F)(F)F)ccc1OCC(F)(F)F (stereo not given) [Flecainide acetate] | 0.783 |
| C[C@]12CC[C@@H]3c4ccc(O)cc4CC[C@H]3[C@@H]1CCC2=O [Estrone] | 0.887 |
| OC(CCN1CCCCC1)(c1ccccc1)c1ccccc1 [Pridinol Methanesulfonate] | 0.791 |
| CN1CC(=O)NC1=N [Creatinine] | 0.933 |
| O=C1c2ccccc2C(=O)C1c1ccccc1 [Phenindione] | 1.23 |
| CC(C)(C)C(O)/C=C/c1ccc2c(c1)OCO2 (stereo not given) [Stiripentol] | 0.139 |
| CC(=O)CC(c1ccccc1)c1c(O)c2ccccc2oc1=O (stereo not given) [Warfarin] | 1.31 |
| O=C(O)COCCN1CCN(C(c2ccccc2)c2ccc(Cl)cc2)CC1 (stereo not given) [Cetirizine] | 1.07 |
| CCCCN1CCCC[C@H]1C(=O)Nc1c(C)cccc1C [Levobupivacaine HCl] | 1.01 |
| Cn1c(=O)c2c(ncn2CC(O)CO)n(C)c1=O (stereo not given) [Dyphylline] | 1.03 |
| O=C(N[C@H](CO)[C@H](O)c1ccc([N+](=O)[O-])cc1)C(Cl)Cl [Chloramphenicol] | 0.843 |
| COc1cc2nccc(Oc3ccc(NC(=O)NC4CC4)c(Cl)c3)c2cc1C(N)=O [Lenvatinib (E7080)] | 0.357 |
| COCCOC(=O)C1=C(C)NC(C)=C(C(=O)OC/C=C/c2ccccc2)C1c1cccc([N+](=O)[O-])c1 (stereo not given) [Cilnidipine] | 0.195 |
